IC50 is the fitted dose that halves viability relative to control wells, and lower means more sensitive; a fit beyond the top or the lowest dose is shown as a bound at that dose. AUC, from the same fit, is the share of area under the viability curve across the 256-fold dose range: 1 means no effect, lower means more sensitive. For some of these results: Where the top dose is marked as inferred, it was calculated from the reported fits.
Tests used:
Assay in all cases: Viability of human cancer cell lines after 72 h of drug (GDSC screen)
Midostaurin = compound: CO[C@@H]1[C@H](N(C)C(=O)c2ccccc2)C[C@H]2O[C@]1(C)n1c3ccccc3c3c4c(c5c6ccccc6n2c5c31)C(=O)NC4 [Midostaurin]; conditions: top dose 0.512 µM; top dose inferred
Procedure: (§1)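 Human cancer cell lines in 384-well plates, medium with 10% serum, drug for 72 h over a 256-fold dose range (nine 2-fold or five 4-fold steps up to the top dose). Adherent lines were fixed and stained with the nucleic acid dye Syto60, suspension lines read with resazurin; signal relative to control wells, capped at 0 and 100%. One two-parameter sigmoid per drug and line, fitted in a mixed model over all curves with the slope shared within a line.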

NVP-BHG712 = compound: Cc1ccc(C(=O)Nc2cccc(C(F)(F)F)c2)cc1Nc1nc(-c2cccnc2)nc2c1cnn2C [NVP-BHG712]; conditions: top dose 10.24 µM; top dose inferred
Procedure: as §1

Mitomycin C = compound: CO[C@@]12[C@H](COC(N)=O)C3=C(C(=O)C(C)=C(N)C3=O)N1C[C@@H]1N[C@@H]12 [Mitomycin C]; conditions: top dose 16 µM
Procedure: as §1

IOX2 = compound: O=C(O)CNC(=O)c1c(O)c2ccccc2n(Cc2ccccc2)c1=O [IOX2]; conditions: top dose 0.1 µM; top dose inferred
Procedure: as §1

Bosutinib = compound: COc1cc(Nc2c(C#N)cnc3cc(OCCCN4CCN(C)CC4)c(OC)cc23)c(Cl)cc1Cl [Bosutinib]; conditions: top dose 2 µM
Procedure: as §1

Row | Cell Line | AUC (Midostaurin) | IC50 (Midostaurin) [nM] | AUC (NVP-BHG712) | IC50 (NVP-BHG712) [nM] | AUC (Mitomycin C) | IC50 (Mitomycin C) [nM] | AUC (IOX2) | IC50 (IOX2) [nM] | AUC (Bosutinib) | IC50 (Bosutinib) [nM]
1 | NCI-H2172 (non-small cell lung carcinoma, adherent) | 0.967 | > 512 | 0.901 | > 10200 | 0.402 | 489 | 0.968 | > 100 | 0.979 | > 2000
2 | NCI-H1563 (lung adenocarcinoma, adherent) | 0.823 | 378 | 0.906 | > 10200 | 0.581 | 1740 | 0.983 | > 100 | 0.964 | > 2000
3 | huH-1 (liver, adherent) | 0.984 | > 512 | 0.984 | > 10200 | 0.569 | 1620 | 0.973 | > 100 | 0.851 | > 2000
4 | 23132-87 (stomach, adherent) | 0.949 | > 512 | 0.975 | > 10200 | 0.141 | 71 | 0.984 | > 100 | 0.957 | > 2000
5 | HCC1500 (breast, adherent) | 0.98 | > 512 | 0.97 | > 10200 | 0.477 | 866 | 0.987 | > 100 | 0.953 | > 2000
6 | CHSA0011 (chondrosarcoma, adherent) | 0.824 | 484 | 0.946 | > 10200 | 0.85 | > 16000 | 0.977 | > 100 | 0.973 | > 2000
7 | NCI-H1993 (lung adenocarcinoma, adherent) | 0.947 | > 512 | 0.884 | > 10200 | 0.813 | 12300 | 0.979 | > 100 | 0.983 | > 2000
8 | SK-MEL-24 (melanoma, adherent) | 0.977 | > 512 | 0.604 | 1310 | 0.54 | 1310 | 0.976 | > 100 | 0.95 | > 2000
9 | HCC1428 (breast, adherent) | 0.947 | > 512 | 0.988 | > 10200 | 0.672 | 3170 | 0.969 | > 100 | 0.971 | > 2000
10 | KYSE-410 (oesophagus, adherent) | 0.817 | 310 | 0.926 | > 10200 | 0.416 | 579 | 0.971 | > 100 | 0.658 | 355
11 | OAW-42 (ovary, adherent) | 0.892 | > 512 | 0.949 | > 10200 | 0.182 | 99.5 | 0.984 | > 100 | 0.954 | > 2000
12 | IPC-298 (melanoma, adherent) | 0.957 | > 512 | 0.788 | 4400 | 0.551 | 1370 | 0.986 | > 100 | 0.768 | 738
13 | HT-115 (large intestine, adherent) | 0.869 | 401 | 0.983 | > 10200 | 0.841 | 9710 | 0.988 | > 100 | 0.991 | > 2000
14 | Capan-2 (pancreas, adherent) | 0.913 | > 512 | 0.932 | > 10200 | 0.634 | 2550 | 0.975 | > 100 | 0.985 | > 2000
15 | MFE-280 (endometrium, adherent) | 0.956 | > 512 | 0.845 | > 10200 | 0.748 | 6360 | 0.98 | > 100 | 0.982 | > 2000
16 | HCC-56 (large intestine, adherent) | 0.956 | > 512 | 0.864 | 9330 | 0.301 | 271 | 0.974 | > 100 | 0.958 | > 2000
17 | HGC-27 (stomach, adherent) | 0.817 | 233 | 0.889 | 8580 | 0.087 | < 62.5 | 0.99 | > 100 | 0.919 | > 2000
18 | C32 (melanoma, adherent) | 0.973 | > 512 | 0.91 | > 10200 | 0.531 | 1230 | 0.985 | > 100 | 0.953 | > 2000
19 | G-401 (kidney, adherent) | 0.735 | 162 | 0.899 | > 10200 | 0.443 | 687 | 0.982 | > 100 | 0.984 | > 2000
20 | RMG-I (ovary, adherent) | 0.907 | > 512 | 0.792 | 5520 | 0.68 | 3490 | 0.981 | > 100 | 0.956 | > 2000
21 | WM35 (melanoma, adherent) | 0.89 | > 512 | 0.56 | 937 | 0.438 | 677 | 0.98 | > 100 | 0.681 | 402
22 | FTC-133 (thyroid, adherent) | 0.975 | > 512 | 0.986 | > 10200 | 0.426 | 613 | 0.985 | > 100 | 0.956 | > 2000
23 | SK-N-AS (neuroblastoma, adherent) | 0.981 | > 512 | 0.984 | > 10200 | 0.545 | 1350 | 0.967 | > 100 | 0.975 | > 2000
24 | HT55 (large intestine, adherent) | 0.951 | > 512 | 0.959 | > 10200 | 0.667 | 2900 | 0.989 | > 100 | 0.986 | > 2000
25 | PCI-15A (head and neck, adherent) | 0.931 | > 512 | 0.984 | > 10200 | 0.429 | 637 | 0.952 | > 100 | 0.934 | > 2000

From the supplement of paper PMC4967469
